Data from the supplement of paper PMC12217912.
Some of the results follow. Sequences were assembled here from the parent chain. Inactive controls read about 0.05.

B1: TEV protease; numbered along this chain (parent)
chain: MGESLFKGPRDYNPISSSICHLTNESDGHTTSLYGIGFGPFIITNKHLFRRNNGTLVVQSLHGVFKVKDTTTLQQHLVDGRDMIIIRMPKDFPPFPQKLKFREPQREERICLVTTNFQTKSMSSMVSDTSCTFPSGDGIFWKHWIQTKDGQCGSPLVSTRDGFIVGIHSASNFTNTNNYFTSVPKNFMELLTNQEAQQWVSGWRLNADSVLWGGHKVFMVKPEEPFQPVKEATQL

Variants of: B1
Test: raw area under fraction-flipped curve 0-4 h after induction (AUC4h, not background-subtracted), DNA-recorder readout of cleavage of the substrate (dimensionless); higher = more cleavage of the substrate by the protease variant
Conditions: temperature: 34 °C; time window: 0-4 h after rhamnose induction
Description: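 In vivo DNA recorder in E. coli TOP10(DE3) ΔrhaA at 34 °C. Each TEVp single-site mutant (parent TEVp 0) is paired with a single-site variant of the 7-mer TEVs (canonical ENLYFQ|S). The substrate sits between flexible linkers in a Bxb1-sfGFP-TEVs-SsrA fusion, so cleavage stabilises Bxb1 and speeds flipping of a recombination array, read by NGS. The value is the raw area under the fraction-flipped curve over 0-4 h after rhamnose induction (AUC4h), with ≥20 reads per time point. It is not background-subtracted; inactive controls average about 0.047.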
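Note: Bxb1 expression induced with 0.2% (w/v) L-rhamnose at OD600 near 0.5, cultures sampled hourly, flipped fraction per protease–substrate barcode pair counted by paired-end Illumina sequencing.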

Variant	area with substrate ENLYFQA	area with substrate ENLYFQC	area with substrate ENLYFQD	area with substrate ENLYFQF	area with substrate ENLYFQG	area with substrate ENLYFQH	area with substrate ENLYFQK	area with substrate ENLYFQL	area with substrate ENLYFQM	area with substrate ENLYFQN	area with substrate ENLYFQP	area with substrate ENLYFQR	area with substrate ENLYFQS	area with substrate ENLYFQW	area with substrate ENLYFQI	area with substrate ENLYFQQ	area with substrate ENLYFQT	area with substrate ENLYFQV	area with substrate ENLYFQY	area with substrate ENLYFQE
H21R	0.1	0.107	0.0562	0.0919	0.0947	0.0912	0.0664	0.0574	0.0816	0.0639	0.0631	0.0619	0.0983	0.0636	–	–	–	–	–	–
T23H	0.083	0.133	0.0623	0.0726	0.0847	0.0769	0.0699	0.0544	0.0762	0.0731	–	0.0701	0.096	–	0.0626	0.0748	0.056	–	–	–
T23V	0.121	0.116	–	0.0892	0.091	0.0779	0.0722	0.0293	0.101	0.0847	–	–	0.105	0.0743	0.0668	–	0.0776	0.086	0.0878	–
E25D	0.0968	0.121	0.0775	–	0.102	0.0782	0.0718	0.0491	0.0927	0.0857	0.0634	0.0618	0.101	0.0659	0.0591	0.0855	0.0701	0.0512	0.0828	–
E25L	0.0955	0.109	0.0726	–	0.0936	0.065	0.071	–	0.132	0.08	0.061	0.0526	0.103	0.0651	0.0434	–	0.0628	0.0575	–	–
E25V	0.121	0.107	–	0.0829	0.106	0.0705	0.067	–	0.0701	0.0747	0.0595	0.0709	0.0979	0.0661	0.0689	0.0772	–	0.0662	–	–
S26D	0.0795	–	0.0438	–	0.029	0.0818	0.05	0.043	0.0824	0.0908	–	0.0544	0.0875	–	0.0549	–	0.0674	0.0627	–	–
D27L	0.0793	0.0845	0.0647	–	0.0878	0.0656	–	0.0592	0.0977	0.0866	0.0502	0.0634	0.0925	0.0569	0.0581	0.0667	0.0632	0.0571	0.0781	–
G28K	0.0689	0.108	0.078	0.0689	0.0727	–	–	0.0792	–	0.0828	–	0.0709	0.0822	–	0.0574	–	0.0039	0.0568	0.0635	0.0589
T30N	0.0846	0.0921	–	–	0.0943	0.0699	0.0619	0.0568	0.0826	0.0759	–	0.0564	0.0873	0.0668	0.078	–	0.0498	–	0.0617	–
T31K	0.075	0.0639	0.0424	–	–	–	0.072	0.0502	0.0566	–	–	0.0453	0.0694	0.0651	0.0549	–	0.0528	0.0717	0.054	–
T31N	0.125	–	0.0808	0.0847	0.0745	–	0.0639	0.0604	0.0914	0.075	0.0632	0.0588	0.0904	0.0788	0.0701	–	0.0692	0.0742	0.0771	–
T31S	0.112	0.128	0.0868	0.0876	0.0815	0.0901	–	0.0763	0.103	0.0841	–	0.0641	0.104	0.0827	0.071	0.0593	0.0864	0.0766	0.0938	–
L33G	0.0879	0.103	0.0749	–	0.107	0.0826	0.0484	0.0542	0.0745	–	0.0478	0.0653	0.0944	0.056	0.044	0.0574	0.0783	0.064	0.0526	–
L33W	0.0588	0.0628	0.0569	–	0.0546	0.066	0.0586	0.0641	0.0526	0.066	0.0599	0.0559	0.0602	–	0.0551	0.0663	0.0635	0.0554	0.0383	0.0602
I36Q	0.0709	0.0683	–	0.072	0.0639	0.0546	0.0452	0.0584	–	0.0511	0.0565	–	0.0688	–	0.0397	–	–	0.052	–	–
G37M	0.0758	0.0878	–	–	–	0.0682	0.0584	0.0475	–	0.074	0.056	0.0629	0.0801	–	0.071	–	0.048	–	0.0628	–
G37V	0.0885	–	–	–	0.0874	–	–	0.0523	0.0702	0.0653	0.0571	–	0.0798	0.0619	0.0563	0.0672	0.0557	0.0582	0.0944	–
F38G	0.0491	–	–	0.0417	–	–	–	–	–	–	–	0.0414	0.0446	–	–	–	–	–	–	–
F38T	0.0859	0.103	0.0654	–	0.0816	0.0707	0.0594	0.0554	0.0729	0.0677	0.0546	0.0612	0.0871	0.0356	0.0491	0.056	0.0675	–	0.063	–
G39C	0.0478	0.0535	–	0.0405	0.0456	0.0502	0.0609	0.0416	0.0444	0.0426	0.0461	0.0487	0.0458	0.0423	0.0395	–	–	0.0421	–	–
G39N	0.0411	0.0494	–	0.0389	–	0.0348	0.037	–	0.04	0.0367	–	0.0326	0.0429	0.0399	0.0364	0.0389	–	0.0247	0.0557	0.0402
G39T	0.0568	0.0319	0.0329	–	0.0465	0.0247	0.0403	0.0595	0.031	0.0421	–	0.0478	0.0473	0.0403	0.039	0.0488	–	0.0437	0.0282	–
P40Y	0.112	0.106	0.0602	0.077	0.108	0.079	0.0614	0.0639	0.0881	0.0798	0.0606	0.0617	0.101	0.0671	0.0523	0.0637	0.0761	0.0607	0.0962	–
